Screen size: about 45,000 compounds; about 65 (0.1%) were called active. Calls follow the shape of the dose curve; as a rule, active = well fitted activation curve with a large enough effect; inconclusive = small, poorly fitted or top-dose-only effect; inactive = no such curve, though single readings can be large or run the other way. This is one part of the list.
Target: Galactocerebrosidase (Homo sapiens) (UniProt P54803)
Experiment: A Novel Cell-Based Assay to Identify Small Molecules for B -Galactocerebrosidase; also: 0% is about no effect; nearly all actives have a fitted effect of over 65% in size
Settings: 145M-Twi-hGALC-G270D cells (Twitcher mouse brain line with human GALC G270D), HMU-beta-Gal fluorescence, 48 h; series mostly up to 57.5 µM; activation: at the top concentration
Procedure, shortened: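 Fluorogenic HMU-b-Gal hydrolysis (0.1 mM final, pH 5.2 citrate-phosphate with 1 mg/mL sodium taurocholate; carbonate stop buffer) measures mutant GALC activity after compound treatment of live 145M-Twi Twitcher brain cells stably carrying human GALC-G270D, with wild-type GALC line alongside; activation sought.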

Sequence of UniProt P54803 (P54803 whole entry, looked up): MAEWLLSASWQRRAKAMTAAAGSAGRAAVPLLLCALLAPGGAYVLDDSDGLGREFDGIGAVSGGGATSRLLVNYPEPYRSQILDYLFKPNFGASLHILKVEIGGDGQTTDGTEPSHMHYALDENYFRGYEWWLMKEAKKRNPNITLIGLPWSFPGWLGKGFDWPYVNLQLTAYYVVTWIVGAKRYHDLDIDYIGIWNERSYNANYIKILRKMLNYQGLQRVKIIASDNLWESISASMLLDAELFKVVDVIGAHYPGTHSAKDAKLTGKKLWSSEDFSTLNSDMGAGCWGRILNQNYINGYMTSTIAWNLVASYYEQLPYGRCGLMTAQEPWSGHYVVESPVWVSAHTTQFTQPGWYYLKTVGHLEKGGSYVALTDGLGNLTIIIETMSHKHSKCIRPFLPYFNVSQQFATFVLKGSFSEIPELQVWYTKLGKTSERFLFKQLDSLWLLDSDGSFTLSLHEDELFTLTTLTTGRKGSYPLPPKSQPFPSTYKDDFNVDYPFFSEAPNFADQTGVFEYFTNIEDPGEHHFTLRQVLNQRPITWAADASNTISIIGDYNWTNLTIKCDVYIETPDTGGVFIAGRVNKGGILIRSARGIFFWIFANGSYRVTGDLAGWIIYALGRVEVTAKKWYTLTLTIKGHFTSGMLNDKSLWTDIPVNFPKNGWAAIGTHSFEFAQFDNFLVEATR

activation, inactive:
Cc1cc(C)c(Cn2cnc3nc4c(cc3c2=O)CCCC4)c(C)c1 -32.5%
O=C(CN1C(=O)c2ccccc2Sc2ncccc21)Nc1cccc(C(F)(F)F)c1 -19.7%
Cc1cccc(N2CCN(C(=O)CCNS(=O)(=O)c3ccc4c(c3)CCN4C(=O)C3CC3)CC2)c1C -35.9%
COc1ccc2nc(NC(=O)c3nc(S(=O)(=O)Cc4ccc(C)cc4)ncc3Cl)sc2c1 -26.2%
COc1cccc(CNC(=O)C2=C(C)C(=O)OC23CCCCCC3)c1 -11.4%
COc1ccc(Nc2cc(C)c3cc(NC(=O)COc4cccc(C)c4)ccc3n2)cc1 -9.7%
CCOc1ccc(S(=O)(=O)N(CC(=O)Nc2ccc(OC)c(Cl)c2)c2ccccc2)cc1 -16%
Cc1ccc(-c2nnc(Nc3ccc(O)cc3)c3ccccc23)cc1S(=O)(=O)NC(C)(C)CO 26.9%
Cc1nn2c(C)c(C(=O)NCc3cccc(Br)c3)cnc2c1-c1ccccc1 -14.5%
CCOc1ccc(NC(=O)N2CCC(n3c(C)nc4cccnc43)CC2)cc1 -1.44%
CCOc1ccc(C(=O)NCC(c2ccc3c(c2)OCO3)N2CCN(C)CC2)cc1 (centres undefined) -9.84%
COc1ccc(Nc2nc3c(S(=O)(=O)c4ccc(C)cc4)nnn3c3ccsc23)cc1Cl -5.77%
CC(=O)N1CCc2c(sc3c2c(=O)n(Cc2ccccc2)c(=O)n3Cc2ccccc2Cl)C1 -0.69%
Cc1ccc(/C=C/c2onc(C)c2S(=O)(=O)N2CCC(C(=O)N3CCN(c4cc(C)ccc4C)CC3)CC2)cc1 -13%
Cc1ccc(Cl)cc1N1CCN(C(=O)COc2cc(=O)n(C)c3ccccc23)CC1 -8.77%
COc1cc2c(cc1OC)C(COc1ccccc1OC)N(C(=O)c1ccc(S(=O)(=O)N(C)C)cc1)CC2 (centres undefined) -3.54%
CC1CCN(S(=O)(=O)c2ccc3c(c2)N(CC(=O)NC(C)(C)C)C(=O)CS3)CC1 -17.8%
COc1ccc(Nc2oc(/C=C/c3cc(OC)c(OC)c(OC)c3)nc2C#N)cc1 -10.5%
COc1cccc(CNC(=O)Cn2c(=O)nc(-c3ccccc3F)c3cc(Cl)ccc32)c1 -15%
CCCCN(CC)C(=O)CSc1nc2ccccc2c(=O)n1Cc1ccco1 -7.74%
COc1cc(-c2nc(-c3ccccc3)c(-c3ccc(Br)cc3)[nH]2)cc(OC)c1O 3.69%
CCC1CCCCN1CCCNC(=O)c1c(O)nc2cc(C)ccn2c1=O (centres undefined) -6.89%
CC1CN(C(=O)N2CCC(C(=O)NCc3cccs3)CC2)c2ccccc2O1 (centres undefined) -19.5%
COC(=O)c1cc2sc(Cl)cc2n1Cc1nc(-c2ccccc2C)oc1C -25%
COc1ccc(NC(=O)C2CCN(c3ccc(Sc4ccc(C)cc4)nn3)CC2)cc1 2.93%
COc1ccc(NC(=O)c2ccco2)cc1NC(=O)c1cc(Br)ccc1Cl -6.41%
CCOc1ccc(C(=O)c2oc3ccccc3c2NC(=O)c2cc(=O)c3ccc(C)cc3o2)cc1 -13.6%
COc1ccccc1C(=O)Nc1ccc(S(=O)(=O)Nc2nc(C)cc(C)n2)cc1 -3.95%
Cc1oc2ncnc(N3CCCCC3)c2c1C(=O)N1CCN(c2ccc(Cl)cc2)CC1 -18.3%
CCOC(=O)c1ccccc1NC(=O)CSc1cn(CC(=O)N2CCCCCC2)c2ccccc12 -14.9%
COc1ccc(S(=O)(=O)N(CC(=O)NCCc2ccccc2)c2ccc(Cl)cc2)cc1 3.96%
CCCCN(CC)CCNC(=O)c1nn(C)c2c1CS(=O)(=O)c1ccccc1-2 -7.63%
CCc1ccc(NC(=O)CCCc2nnc3n(C(C)CC)c(=O)c4sccc4n23)cc1 (centres undefined) 5.4%
Cc1ccc(NC(=O)CSc2nnc(NC(=O)NC3CCCCC3)s2)cc1 -17.4%
COc1ccc(-c2nc3c4ccccc4n(CC(=O)N4CCN(c5ccccc5F)CC4)c(=O)n3n2)cc1 -3.19%
COc1cc(C)ccc1OCCSc1nc2ccc(NC(=O)c3ccccc3F)cc2s1 -10.9%
O=C(Cn1c(=O)n(CC2CCCO2)c(=O)c2ccccc21)Nc1ccc(F)cc1F (centres undefined) -3.55%
COC(=O)c1cc(NC(=O)Cn2nc(-c3ccccc3)c3c(c2=O)CCCC3)cc(C(=O)OC)c1 1.44%
N#C/C(=C/c1ccccc1Cl)c1nc(-c2cc3ccccc3oc2=O)cs1 -5.99%
CCc1ccc(-c2cc(C)no2)cc1S(=O)(=O)NCc1ccc(OC)cc1 -8.35%
Fc1ccc(NCc2ccccc2-c2nnc(-c3ccccc3Cl)o2)cc1Cl -17.6%
CCOc1ccc(-n2c(=O)c3c(C)c(C)sc3n(Cc3ccc(C(C)(C)C)cc3)c2=O)cc1 26.5%
CCN(CC)C(=O)Cn1c(=O)n(CCCCCC(=O)NCc2ccc(C)cc2)c(=O)c2sccc21 -8.62%
Cc1sc2ncn(CC(=O)N3CCN(c4cccc(Cl)c4)CC3)c(=O)c2c1S(=O)(=O)N1CCC(C)CC1 -12.7%
Cc1cccc2cc(-c3nc(-c4cccs4)no3)c(=O)oc12 -7.09%
CCOc1ccc(C(c2c(O)cc(C)n(CCOC)c2=O)N2CCN(c3ccc(F)cc3)CC2)cc1 (centres undefined) -2.45%
COc1cccc(C(=O)N2CCc3cc(OC)c(OC)cc3C2COc2ccc3c(C)cc(=O)oc3c2)c1 (centres undefined) 8.19%
CCn1cc(S(=O)(=O)c2cc(C)cc(C)c2)c(=O)c2cc(F)c(N3CCN(c4ccccc4)CC3)cc21 -4.22%
CCCCCN=C(N)N/N=C/c1c[nH]c2ccc(OC)cc12 -16.4%
CCCCNC(=O)Cn1nc(N2CCN(c3ccccc3OC)CC2)ccc1=O 2.59%
COc1ccc(Cl)cc1NC(=O)COc1cccc2c(=O)n(C)ccc12 -8.43%
COC(=O)c1ccc(NC(=O)CN(C)S(=O)(=O)c2ccc3c(c2)CCCC(=O)N3)cc1 -0.472%
COCCn1c(C)cc(O)c(C(c2ccccc2Cl)N2CCN(c3ccccc3)CC2)c1=O (centres undefined) -10.2%
CCCCN(C(=O)CCn1c(=O)oc2ccccc21)c1ccccc1 -15.8%
COc1ccc(OCC(=O)N2CCN(C(=O)c3cccc(OC)c3OC)CC2)cc1 1.02%
CCOc1ccc(-c2cc(CCCC(=O)NCCc3ccc(SC)cc3)no2)cc1 -13.2%
Cc1ccc2[nH]c(C)c(CCNC(=O)c3cc4cc(Br)ccc4oc3=O)c2c1 2.84%
Cc1cccc(NC(=O)Cn2c(=O)n(CC3CCC(C(=O)NCCc4ccccc4)CC3)c(=O)c3ccccc32)c1C (centres undefined) -14.2%
O=C(NCC(c1cccnc1)N1CCc2ccccc21)c1cccc(F)c1 (centres undefined) -9.99%

— PubChem BioAssay AID1159614 (National Center for Advancing Translational Sciences (NCATS), 2016)
